Experimental data published in PMC4336329 (PLoS ONE, 2015).
Hit rate of the full screen: of about 310,000 compounds, about 2,200 (0.71%) showed an effect of 50% or more. Effects have a minus sign here. This is one part of the list.

Molecular target: human ether-à-go-go-related gene (hERG) potassium channel (human, UniProt Q12809)
Assay: primary screen, population patch clamp on CHO cells stably expressing hERG

Sequence of human ether-à-go-go-related gene (hERG) potassium channel (Q12809 whole entry, looked up): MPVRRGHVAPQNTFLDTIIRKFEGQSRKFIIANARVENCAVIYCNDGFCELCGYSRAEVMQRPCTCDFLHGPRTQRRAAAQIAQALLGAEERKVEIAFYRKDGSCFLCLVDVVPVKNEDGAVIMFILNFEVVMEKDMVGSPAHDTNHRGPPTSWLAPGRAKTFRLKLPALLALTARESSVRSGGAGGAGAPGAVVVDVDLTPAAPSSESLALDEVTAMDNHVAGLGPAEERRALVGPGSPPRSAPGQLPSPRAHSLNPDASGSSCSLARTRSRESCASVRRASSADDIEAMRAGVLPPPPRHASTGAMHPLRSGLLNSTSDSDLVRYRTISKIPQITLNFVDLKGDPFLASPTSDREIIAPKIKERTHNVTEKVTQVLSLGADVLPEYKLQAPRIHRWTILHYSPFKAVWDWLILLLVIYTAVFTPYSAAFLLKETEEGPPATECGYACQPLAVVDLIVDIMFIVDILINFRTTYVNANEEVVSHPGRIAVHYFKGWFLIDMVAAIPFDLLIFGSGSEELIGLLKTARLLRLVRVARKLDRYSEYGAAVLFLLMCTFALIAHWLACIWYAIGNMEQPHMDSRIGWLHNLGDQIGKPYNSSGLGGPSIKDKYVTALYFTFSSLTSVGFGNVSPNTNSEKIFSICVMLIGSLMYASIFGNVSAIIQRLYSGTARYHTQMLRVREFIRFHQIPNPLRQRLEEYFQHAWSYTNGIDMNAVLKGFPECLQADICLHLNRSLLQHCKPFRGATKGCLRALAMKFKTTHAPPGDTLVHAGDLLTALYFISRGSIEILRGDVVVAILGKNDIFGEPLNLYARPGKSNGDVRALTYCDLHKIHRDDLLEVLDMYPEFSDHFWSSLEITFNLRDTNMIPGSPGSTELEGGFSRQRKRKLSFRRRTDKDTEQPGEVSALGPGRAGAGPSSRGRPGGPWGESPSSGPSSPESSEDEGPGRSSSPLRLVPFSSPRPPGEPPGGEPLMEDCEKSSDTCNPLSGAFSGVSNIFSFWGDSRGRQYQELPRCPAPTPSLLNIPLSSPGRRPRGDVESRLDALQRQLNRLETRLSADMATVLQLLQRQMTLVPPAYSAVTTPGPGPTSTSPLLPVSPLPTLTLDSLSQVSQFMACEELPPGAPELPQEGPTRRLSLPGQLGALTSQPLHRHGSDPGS

**Q.** How did the “hERG current change (%, negative = inhibition) at 1uM” value turn out when `CCn1ncc(/C=N\NC(=O)c2ccc3c(c2)c(C)c(C)n3Cc2ccccc2)c1C` was run?
**A.** 5.11%

**Q.** With `Cc1cc2oc(=O)cc(CSc3nc(N)cc(N)n3)c2cc1C(C)C` as the molecule, how does the “hERG current change (%, negative = inhibition) at 1uM” value read?
**A.** 8.33%

**Q.** How did the “hERG current change (%, negative = inhibition) at 1uM” value turn out when `COC(=O)[C@H](C)NC(=O)Nc1ccc(Oc2ccccc2)cc1` was run?
**A.** 7.78%

**Q.** `Cc1ccc(Nc2nc(CSc3nnc(-c4ccccc4)n3C)cs2)cc1` was tested. Which “hERG current change (%, negative = inhibition) at 1uM” value did it give?
**A.** 6.99%

**Q.** Which “hERG current change (%, negative = inhibition) at 1uM” value does the source give for `CCc1ccc(NC(=S)Nc2cccc(OC)c2)cc1` here?
**A.** 14.1%

**Q.** `Cc1ccc(-n2c(C3CC3c3ccc(Cl)cc3)n[nH]c2=S)cc1` (stereo not drawn) was tested. Which “hERG current change (%, negative = inhibition) at 1uM” value did it give?
**A.** 10.6%

**Q.** How did the “hERG current change (%, negative = inhibition) at 1uM” value turn out when `COc1ccc(N2C(=O)/C(=C\c3ccco3)N=C2SCC(=O)NC(C)C)cc1Cl` was run?
**A.** 5.53%

**Q.** For `COc1ccc(C(C(=O)NC(C)(C)C)N(CC2CCCO2)C(=O)CCC(=O)Nc2cc(C)on2)cc1` (stereo not drawn), which “hERG current change (%, negative = inhibition) at 1uM” value is on record?
**A.** 14.1%

**Q.** With `Cc1nn(C)c(C)c1S(=O)(=O)N1CCC(CO)(CC2CCCCO2)CC1` (stereo not drawn) as the molecule, how does the “hERG current change (%, negative = inhibition) at 1uM” value read?
**A.** -7.4%

**Q.** Which “hERG current change (%, negative = inhibition) at 1uM” value does the source give for `CCOc1cc(C(=O)N=c2sccn2C)ccc1OC(F)F` here?
**A.** 13.9%

**Q.** With `Cc1ccc(C(=O)NCCSCc2ccc(Cl)cc2Cl)cc1[N+](=O)[O-]` as the molecule, how does the “hERG current change (%, negative = inhibition) at 1uM” value read?
**A.** 11.9%

**Q.** With `COc1ccc(/C=C(\C#N)C(=O)NCCc2ccccc2)cc1OCc1ccccc1` as the molecule, how does the “hERG current change (%, negative = inhibition) at 1uM” value read?
**A.** -1.12%

**Q.** Which “hERG current change (%, negative = inhibition) at 1uM” value does the source give for `CC(OC(=O)CNC(=O)c1ccc(Br)cc1)C(=O)NC1CCCCC1C` (stereo not drawn) here?
**A.** 3.25%

**Q.** Which “hERG current change (%, negative = inhibition) at 1uM” value does the source give for `CC(C)CC(=O)Nc1ccccc1Oc1ccccc1` here?
**A.** 8.11%

**Q.** How did the “hERG current change (%, negative = inhibition) at 1uM” value turn out when `CCOc1cccc(-c2cc(C(=O)NN)[nH]n2)c1` was run?
**A.** 11%

**Q.** `COC(=O)c1c(NC(=O)CCN2CCOCC2)sc2c1CCCC2` was tested. Which “hERG current change (%, negative = inhibition) at 1uM” value did it give?
**A.** -5.47%

**Q.** With `COCCNC(=O)c1ccc2c3n(nc2c1)-c1ccc(C)cc1CO3` as the molecule, how does the “hERG current change (%, negative = inhibition) at 1uM” value read?
**A.** -0.831%

**Q.** `Cc1ccc(C)c2nc(SCC(=O)N3CCCc4ccccc43)c(C#N)cc12` was tested. Which “hERG current change (%, negative = inhibition) at 1uM” value did it give?
**A.** 8.95%

**Q.** `S=C(NCc1ccc(Cl)cc1Cl)NC1CCCCC1` was tested. Which “hERG current change (%, negative = inhibition) at 1uM” value did it give?
**A.** 18.5%

**Q.** For `CCC(C(=O)N1CCN(C(=O)c2ccco2)CC1)n1sc2ccccc2c1=O` (stereo not drawn), which “hERG current change (%, negative = inhibition) at 1uM” value is on record?
**A.** 1.67%

**Q.** For `COc1ccc(Cl)cc1C(=O)NCCCN1CCOCC1`, which “hERG current change (%, negative = inhibition) at 1uM” value is on record?
**A.** 16.2%

**Q.** Which “hERG current change (%, negative = inhibition) at 1uM” value does the source give for `NC(=O)C1CCN(CC(=O)Nc2nc(-c3ccccc3)cs2)CC1` here?
**A.** 7.81%

**Q.** `COc1ccc(N2CCN(S(=O)(=O)CCNC(=O)C3CC(=O)N(c4ccccc4)C3)CC2)cc1` (stereo not drawn) was tested. Which “hERG current change (%, negative = inhibition) at 1uM” value did it give?
**A.** 18.3%

**Q.** How did the “hERG current change (%, negative = inhibition) at 1uM” value turn out when `COC(=O)c1ccc(S(=O)(=O)N(CCO)Cc2ccccc2)n1C` was run?
**A.** 14.4%

**Q.** How did the “hERG current change (%, negative = inhibition) at 1uM” value turn out when `CCC1(CC)N=C(c2ccccc2)C(=S)N1` was run?
**A.** 5.62%

**Q.** How did the “hERG current change (%, negative = inhibition) at 1uM” value turn out when `O=C(CCN1C(=O)/C(=C/c2cccc(Br)c2)SC1=S)NNC(=O)c1cccnc1` was run?
**A.** 14.1%

**Q.** `Cc1sc2ncnc(N3CCC(C(=O)Nc4cc(Cl)ccc4Cl)CC3)c2c1C` was tested. Which “hERG current change (%, negative = inhibition) at 1uM” value did it give?
**A.** 9.99%

**Q.** For `CN(C)S(=O)(=O)N1CCC(Oc2cccc(C(=O)N3CCSCC3)c2)CC1`, which “hERG current change (%, negative = inhibition) at 1uM” value is on record?
**A.** 4.68%

**Q.** Which “hERG current change (%, negative = inhibition) at 1uM” value does the source give for `CCCCC[C@H](O)/C=C/[C@H]1CCC(=O)[C@@H]1CCCCCCC(=O)N1CCCCC1CO` (stereo partly drawn) here?
**A.** 12.9%

**Q.** Which “hERG current change (%, negative = inhibition) at 1uM” value does the source give for `O=C(Nc1cccc(F)c1)C1CCCN(S(=O)(=O)c2cccc3cccnc23)C1` (stereo not drawn) here?
**A.** 18.9%

**Q.** With `Cn1ncc(Oc2ccc([N+](=O)[O-])cc2)c(Cl)c1=O` as the molecule, how does the “hERG current change (%, negative = inhibition) at 1uM” value read?
**A.** -6.15%

**Q.** Which “hERG current change (%, negative = inhibition) at 1uM” value does the source give for `Cc1cccc(N2CC(C(=O)Nc3nnc(SCc4cccnc4)s3)CC2=O)c1` (stereo not drawn) here?
**A.** -1.45%

**Q.** Which “hERG current change (%, negative = inhibition) at 1uM” value does the source give for `COc1ccc(NCc2nnc(SCC#N)n2-c2ccccc2OC)cc1` here?
**A.** 8.09%

**Q.** How did the “hERG current change (%, negative = inhibition) at 1uM” value turn out when `CSc1nc(C)c(Cl)c(C)c1C#N` was run?
**A.** -2.08%

**Q.** With `NC(=O)C1CCN(C(=O)c2ccc(Oc3cc(Cl)cc(Cl)c3)o2)CC1` as the molecule, how does the “hERG current change (%, negative = inhibition) at 1uM” value read?
**A.** 11%

**Q.** With `CCOC(=O)N1CCN(C(=O)c2ccc(N(Cc3ccc(C)cc3)S(C)(=O)=O)cc2)CC1` as the molecule, how does the “hERG current change (%, negative = inhibition) at 1uM” value read?
**A.** -7.28%

**Q.** Which “hERG current change (%, negative = inhibition) at 1uM” value does the source give for `O=S(=O)(c1ccc(-c2ccon2)s1)N1CCN(c2ccncc2)CC1` here?
**A.** 5.22%

**Q.** With `Cc1ccccc1NC(=O)CSc1nnc(-c2ccco2)c(-c2ccco2)n1` as the molecule, how does the “hERG current change (%, negative = inhibition) at 1uM” value read?
**A.** 1.63%

**Q.** How did the “hERG current change (%, negative = inhibition) at 1uM” value turn out when `N#C/C(=N/O)c1nc(-c2ccc(F)cc2)cs1` was run?
**A.** 10.4%

**Q.** With `COc1cc2c(cc1OC)CN(C(=O)c1cc(Cl)nc(Cl)c1)CC2` as the molecule, how does the “hERG current change (%, negative = inhibition) at 1uM” value read?
**A.** 14.1%

**Q.** For `CCCSCCCNC(=O)c1cc2c(s1)CS(=O)(=O)C2`, which “hERG current change (%, negative = inhibition) at 1uM” value is on record?
**A.** 11%

**Q.** With `O=C(O)/C=C/c1cn(Cc2ccccc2)nc1-c1ccccc1` as the molecule, how does the “hERG current change (%, negative = inhibition) at 1uM” value read?
**A.** 8.95%

**Q.** With `CCOC(=O)[C@H]1[C@H]2COc3cc(OC)ccc3[C@@H]2N2C(=O)c3cc(F)ccc3NC(=O)[C@@]12C` as the molecule, how does the “hERG current change (%, negative = inhibition) at 1uM” value read?
**A.** 17.3%

**Q.** `Cc1cccc(C(=O)Nc2nnc(Cc3ccccc3)s2)c1` was tested. Which “hERG current change (%, negative = inhibition) at 1uM” value did it give?
**A.** 13.3%

**Q.** `O=C1CSC(=S)N1c1cccc(Cl)c1` was tested. Which “hERG current change (%, negative = inhibition) at 1uM” value did it give?
**A.** 16.6%

**Q.** For `Cc1ccccc1C(=O)Nn1c(C)ccc1C`, which “hERG current change (%, negative = inhibition) at 1uM” value is on record?
**A.** 11.2%

**Q.** For `CC1=C(C(=O)OCC(C)C)C23C(=O)c4ccccc4C2(O1)OC(N)=C3C#N` (stereo not drawn), which “hERG current change (%, negative = inhibition) at 1uM” value is on record?
**A.** 10.3%

**Q.** With `COc1ccc(CCn2c(C)c(C(C)=O)c3cc(OC(=O)c4ccco4)ccc32)cc1OC` as the molecule, how does the “hERG current change (%, negative = inhibition) at 1uM” value read?
**A.** 14.1%

**Q.** With `CCOc1ccc(NC(=O)c2cc(C)nc3ccccc23)cc1` as the molecule, how does the “hERG current change (%, negative = inhibition) at 1uM” value read?
**A.** 0.102%

**Q.** How did the “hERG current change (%, negative = inhibition) at 1uM” value turn out when `CCC(C)N(C(=O)c1csnn1)C(C(=O)NCc1ccc(F)cc1)c1ccccc1F` (stereo not drawn) was run?
**A.** 12%

**Q.** `Cc1ccc(C(=O)Nc2ccc(C(=O)NCC3CCCO3)cc2)cc1` (stereo not drawn) was tested. Which “hERG current change (%, negative = inhibition) at 1uM” value did it give?
**A.** 18.7%

**Q.** Which “hERG current change (%, negative = inhibition) at 1uM” value does the source give for `COC(=O)c1cnn(-c2ccc(Cl)cc2)c1/C=N/NC(N)=S` here?
**A.** 14.8%

**Q.** `CCn1c(NC(=O)c2cccs2)c(-c2cccs2)c(=O)c2ccccc21` was tested. Which “hERG current change (%, negative = inhibition) at 1uM” value did it give?
**A.** 4.43%

**Q.** For `O=C1CCN(Cc2ccccc2)S(=O)(=O)c2ccc(C(F)(F)F)cc21`, which “hERG current change (%, negative = inhibition) at 1uM” value is on record?
**A.** 8.82%

**Q.** For `CC(=O)c1cccc(NC(=O)Cc2coc3cc4c(cc23)CCC4)c1`, which “hERG current change (%, negative = inhibition) at 1uM” value is on record?
**A.** 11.5%

**Q.** `COc1ccccc1CNC(=O)c1cc(C)nn1-c1ccccc1` was tested. Which “hERG current change (%, negative = inhibition) at 1uM” value did it give?
**A.** 11.9%

**Q.** With `CCCCCn1c(CNC(=O)COC)nc2ccccc21` as the molecule, how does the “hERG current change (%, negative = inhibition) at 1uM” value read?
**A.** -1.45%
